About 14,000 (4.5%) of roughly 310,000 compounds showed an effect of 50% or more. Effects have a minus sign here. The list shows a part of the results.
biological target: human ether-à-go-go-related gene (hERG) potassium channel (human, UniProt Q12809); assay: primary screen, population patch clamp on CHO cells stably expressing hERG
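Note: peak tail current of the secondary pulse compared with the same well before compound.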

Sequence of human ether-à-go-go-related gene (hERG) potassium channel (Q12809 whole entry, looked up): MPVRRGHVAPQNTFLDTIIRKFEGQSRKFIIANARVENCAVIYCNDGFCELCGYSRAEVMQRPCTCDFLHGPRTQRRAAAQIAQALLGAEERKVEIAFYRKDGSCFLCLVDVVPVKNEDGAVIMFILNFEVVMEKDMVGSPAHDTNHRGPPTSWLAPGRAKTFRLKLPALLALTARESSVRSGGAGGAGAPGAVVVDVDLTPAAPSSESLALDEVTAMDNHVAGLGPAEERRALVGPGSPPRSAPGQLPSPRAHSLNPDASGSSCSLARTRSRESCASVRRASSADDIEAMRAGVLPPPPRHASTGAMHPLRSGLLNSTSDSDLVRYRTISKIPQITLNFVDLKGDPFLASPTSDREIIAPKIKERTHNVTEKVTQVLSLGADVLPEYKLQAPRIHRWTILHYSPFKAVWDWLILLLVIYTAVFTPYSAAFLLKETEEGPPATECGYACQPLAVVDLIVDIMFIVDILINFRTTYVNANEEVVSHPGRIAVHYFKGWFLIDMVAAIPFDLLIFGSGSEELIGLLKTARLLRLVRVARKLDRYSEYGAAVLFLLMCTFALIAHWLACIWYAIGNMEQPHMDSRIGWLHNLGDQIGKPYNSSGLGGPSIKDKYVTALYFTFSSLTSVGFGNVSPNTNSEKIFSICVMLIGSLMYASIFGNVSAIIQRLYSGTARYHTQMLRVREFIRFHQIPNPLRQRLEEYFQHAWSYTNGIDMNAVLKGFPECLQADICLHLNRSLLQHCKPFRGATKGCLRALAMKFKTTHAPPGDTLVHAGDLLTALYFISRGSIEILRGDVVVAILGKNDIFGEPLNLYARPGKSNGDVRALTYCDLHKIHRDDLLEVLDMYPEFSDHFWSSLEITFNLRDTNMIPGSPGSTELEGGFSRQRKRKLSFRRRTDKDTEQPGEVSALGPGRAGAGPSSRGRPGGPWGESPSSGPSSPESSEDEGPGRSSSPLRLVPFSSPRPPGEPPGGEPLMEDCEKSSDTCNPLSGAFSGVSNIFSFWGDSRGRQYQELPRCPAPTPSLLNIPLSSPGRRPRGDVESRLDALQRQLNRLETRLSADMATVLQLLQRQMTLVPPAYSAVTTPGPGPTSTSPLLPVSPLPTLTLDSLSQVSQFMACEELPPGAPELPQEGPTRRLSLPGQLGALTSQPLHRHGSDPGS

| Compound | hERG current change (%, negative = inhibition) at 10uM [%] |
| --- | --- |
| CSC1=NC2(CCCCC2)CC12C=CC(=O)C=C2 | -11.6 |
| COc1ccc(CNc2nc(=S)[nH]c3cc(OC)c(OC)cc23)cc1 | 3.1 |
| Cc1ccc(N2CC(O)Cn3c2nc2c3c(=O)[nH]c(=O)n2C)cc1 (stereo not drawn) | 13.3 |
| CC(C)c1nc(N2CCN(C(=O)c3ccccc3)CC2)c(C#N)c2c1COC(C)(C)C2 | -40.8 |
| CCCCN(C(=O)c1ccc(S(=O)(=O)N(C)C)cc1)c1ccccc1 | -10.9 |
| CC(C)n1c(SCC(=O)Nc2ccccc2)nc2c1c(=O)n(C)c(=O)n2C | -20.4 |
| COC(=O)CN1CCN(C(c2ccccc2)c2ccccc2)CC1 | 5 |
| COc1ccccc1NC(=S)N1CC(C)(C)C1=O | 9.92 |
| CCCN(CCO)CCCc1ccccc1 | -6.8 |
| COc1ccc(Cc2nnc(NC(=O)c3ccco3)s2)cc1 | -11.4 |
| Cc1ccc2[nH]c3c(=O)n(Cc4ccco4)cnc3c2c1 | 14.1 |
| C/C(=N\NC(=O)c1cc(-c2ccc(Cl)s2)[nH]n1)c1ccncc1 | -7.89 |
| CCCNC(=O)C1(CC2CC(c3ccccc3)=NO2)CCNCC1 (stereo not drawn) | 23.5 |
| C/C(=N\NC(=O)c1nn(C)cc1Cl)c1ccncc1 | 4.89 |
| O=C(Nc1ccc(Cl)cc1)Nc1cccnc1 | -50.7 |
| CCC(=O)Nc1cc2c(cc1C(=O)CC)OCCO2 | -5.79 |
| CC12CN3CC(C)(CN(C1)C3c1ccc([N+](=O)[O-])o1)C2 (stereo not drawn) | 10.8 |
| C=CCOc1cccc(C(=O)N2CCCC(Nc3ccc(F)cc3)C2)c1 (stereo not drawn) | -40 |
| Cc1nc2c(Br)cc(Br)cc2cc1O | 15.8 |
| Cc1ccc2nc(N3CCN(S(=O)(=O)c4ccc(C)c(Cl)c4)CC3)c(C#N)cc2c1 | 8.45 |
| Cc1nn(-c2ccc(F)cc2)c(N)c1C1(O)C(=O)Nc2ccccc21 (stereo not drawn) | 16.4 |
| Oc1ccc(/C=N/NC(=S)N/N=C/c2ccc(O)cc2)cc1 | 19.4 |
| O=C(Nc1ccc(OCc2ccccc2Cl)cc1)c1cccnc1 | 1.02 |

| Compound | hERG current change (%, negative = inhibition) at 10uM [%] |
| --- | --- |
| Cc1cc(C(=O)N/N=C/c2ccc(-c3ccc([N+](=O)[O-])cc3C)o2)n[nH]1 | 5.62 |
| Cc1ccc(OCC(=O)Nc2ccccc2C(N)=O)cc1 | 11.1 |
| Cc1ccc(S(=O)(=O)N(C)C)cc1NC(=O)COC(=O)C1CC(=O)N(c2ccc3c(c2)OCCO3)C1 (stereo not drawn) | -4.43 |
| CCOCC(=O)Nc1c(C(=O)N2CCN(c3ncccn3)CC2)oc2ccccc12 | -21.4 |
| CCN(CC(=O)NCc1cccs1)C(=O)C(c1ccccc1)c1ccccc1 | -33.7 |
| CCOC(=O)c1ccccc1NC(=S)N1CCN(C2CCCCC2)CC1 | -62.3 |
| Cc1ccc(S(=O)(=O)c2cc3c(=O)n4ccccc4nc3n(CCc3ccccc3)c2=N)cc1 | 5.39 |
| Cc1ccc2c(c1)c1c(n2CC(O)CN2CCCCC2C)CCCC1 (stereo not drawn) | -42.6 |
| CC(C)C(=O)n1nc(-c2cccnc2)nc1NCc1cccs1 | -5.24 |
| COc1ccc(-c2nc(N)n(C(=O)c3cccs3)n2)cc1 | 21.4 |
| C/C(=C/c1ccccc1)C(=O)N1CCN(c2ccccc2)CC1 | -16.2 |
| Cl.c1csc(-c2cnc3n2CCCC3)c1 | 8.38 |
| CCCCOc1ccc(NC(=O)CCSc2nccn2C)cc1 | 21.7 |
| Cc1nc2ccccc2cc1C(=O)Nc1ccccc1Cl | -2.31 |
| COc1ccc(N2C(=O)CC(NCCNc3ccc([N+](=O)[O-])cn3)C2=O)cc1 (stereo not drawn) | -34 |
| O=S(=O)(NNc1ncc(C(F)(F)F)cc1Cl)c1ccccc1 | 11.3 |
| O=C(COC(=O)c1cnccn1)c1ccc(Cl)c([N+](=O)[O-])c1 | 4.23 |
| Cn1c(=O)c2c(ncn2CC(=O)N/N=C/C(Br)=C/c2ccccc2)n(C)c1=O | -9.23 |
| CN1CCCC1=Nc1c2c(nc3ccccc13)N(C)CC2 | -0.97 |
| Cc1ccc(C(=O)Cc2ccccc2)o1 | 13.3 |
| O=C(Cn1ncc2c(=O)oc3ccccc3c21)N1CCCN(Cc2ccccc2F)C1 | -25.5 |
| Cc1ccc(C2(C)NC(=O)N(CC(=O)N(C)CC(=O)Nc3cccc(F)c3)C2=O)cc1 (stereo not drawn) | -2.36 |
| CCC(CC)C(=O)N1CCN(Cc2ccc3c(c2)OCO3)CC1 | 6.17 |

| Compound | hERG current change (%, negative = inhibition) at 10uM [%] |
| --- | --- |
| CC(C)N(C(=O)Cn1cc(S(=O)(=O)CC(=O)Nc2ccccc2)c2ccccc21)C(C)C | -17.9 |
| O=C(CNC(=S)N(Cc1ccccc1Cl)C1CCCC1)NCCCN1CCOCC1 | 7.4 |
| O=C(CCc1nnc(CCCCc2ccccc2)o1)N1CCCC(O)C1 (stereo not drawn) | -6.36 |
| O=C(CCCOc1ccccc1)Nc1ncccn1 | 26.3 |
| N#Cc1c[nH]n2c(=O)cc(Cc3ccccc3)nc12 | 19.9 |
| O=C(O)C(=O)O.c1cncc(CNCCc2ccc3c(c2)OCO3)c1 | 8.84 |
| COc1ccccc1NC(=O)CN(c1ccccc1)S(=O)(=O)c1ccccc1 | -4.39 |
| Cc1ccccc1Nc1ccc([N+](=O)[O-])cn1 | 9.97 |
| NC(=O)CSc1nnc2ccc(-c3ccc(Cl)cc3)nn12 | -4.22 |
| CCN1CCN(S(=O)(=O)c2ccc(Cl)c(C(=O)NC3CCCCC3)c2)CC1 | -30.4 |
| Cl.Nc1nonc1C(=O)N/N=C/c1cc(Br)ccc1O | 23.6 |
| COc1ccc(C)cc1NC(=O)C(OC(=O)c1cnc(C)cn1)c1ccccc1 (stereo not drawn) | -48.8 |
| COc1ccc(CC(=O)N/N=C(\C)c2cccs2)cc1OC | 10.3 |
| CCOC(=O)C1CCN(C(=S)Nc2cccc(C)c2)CC1 | -1.7 |
| Cc1ccc(S(=O)(=O)N(C)C)cc1NC(=O)COC(=O)c1ccc2ccccc2n1 | -6.54 |
| CCc1nnc(NC(=O)c2ccc(S(=O)(=O)N(CC)CC)cc2)s1 | 10.5 |
| CC(C)Oc1ccc(C(=O)N(CN2CCCC2=O)c2ccc(F)cc2)cc1 | 4.39 |
| COc1ccc(C(C(=O)NCC2CCCO2)N(Cc2cccs2)C(=O)c2snc(C(N)=O)c2N)cc1OC (stereo not drawn) | 24.1 |
| Nc1nc(/C=C/c2cccnc2)nc(-c2ccccc2O)n1 | 11.2 |
| COc1ccc(CCNC(=O)Cc2ccc([N+](=O)[O-])cc2)cc1OC | -11.6 |
| Cc1cccn2c(CNC3CCCc4ccccc43)c(C(=O)N3CCCCC3)nc12 (stereo not drawn) | -17.3 |
| Cc1nc2nc(-c3ccccc3)nn2c(C)c1C | -10.6 |
| CC1OC(C[N+](C)(C)C)CC1O.[Cl-] (stereo not drawn) | 5.35 |

| Compound | hERG current change (%, negative = inhibition) at 10uM [%] |
| --- | --- |
| CCOC(=O)N1CCN(C(=O)CN(C)S(=O)(=O)c2ccc3c(c2)c(=O)n(C)c(=O)n3C)CC1 | 33.9 |
| N#Cc1c(N)sc(=S)c2c1CCN(Cc1ccccc1)C2 | -5.46 |
| COc1ccc2cc3cc(C(=O)NCCN4CCc5ccccc5C4)sc3nc2c1 | -32.9 |
| O=C(/C=C/c1ccc(Cl)cc1)NCc1ccco1 | -7.54 |
| CN1CCc2c(OCC(=O)N3CCC(Cc4ccccc4)CC3)cccc2C1=O | -43.8 |
| CN(C)Cc1ccccc1CCc1ccccc1.Cl | -13 |
| CNC(=O)C1=C(C)n2c(nc3ccccc32)NC1c1ccc(OC)cc1 (stereo not drawn) | -5.06 |
| Cc1cc(C)c(S(=O)(=O)N2CCCCC2CCNC(=O)C(=O)NCC2CCCO2)c(C)c1 (stereo not drawn) | -16.5 |
| O=C(COc1ccc(Cl)cc1Cl)NC(=S)N1CCCc2ccccc21 | 14.5 |
| c1cnc2nc(-c3ccc4c(c3)OCO4)cn2c1 | -0.0906 |
| CC(C)(C)NC(=O)C(=O)NN=C1CCCCCCC1 | 19.1 |
| O=C(CSc1nnc(-c2ccc(Br)cc2)o1)N1CCN(C(=O)c2ccco2)CC1 | -54.6 |
| CN(C)S(=O)(=O)c1cccc(C(=O)Nc2ccccc2N2CCCCC2)c1 | 5.55 |
| Cc1ccc(C(=O)c2cc3ccccc3o2)cc1[N+](=O)[O-] | 15.2 |
| Cc1cccc(N(CC(=O)N/N=C/c2ccc(OCC(=O)NCc3ccco3)cc2)S(C)(=O)=O)c1C | 4.14 |
| O=C(Cn1cnc2ccccc21)N/N=C/c1cccnc1 | 11 |
| CN(c1ccc([N+](=O)[O-])cc1C(N)=O)C1CCCCC1 | -0.575 |
| CCOc1ccc(NC(=S)N(CCOC)C(C)c2cccnc2)cc1 (stereo not drawn) | 9.3 |
| CCOC(=O)CC1COCCN1Cc1cn[nH]c1-c1cc(OC)c(OC)c(OC)c1 (stereo not drawn) | -10.5 |
| COc1cc(CN(CC2CCCO2)C(=O)c2ccco2)cc(OC)c1OC (stereo not drawn) | 8.74 |
| COCC1=C(C(=O)OC(C)OC(=O)OC(C)C)N2C(=O)[C@@H](NC(=O)/C(=N\OC)c3csc(N)n3)[C@H]2SC1 (stereo partly drawn) | -4.35 |
